Out of some 410,000 compounds screened, about 6,400 (1.6%) were called active. Inconclusive results, whose numbers are uncertain, are shown with a selection of clear calls. Calls come from the whole dose curve; as a rule, active = well fitted inhibition curve with a large enough effect; inconclusive = small, poorly fitted or top-dose-only effect; inactive = no such curve, though single readings can be large or run the other way. A potency beside an inconclusive call is a rough fit, not a confirmed value.
Target: Glucagon-like peptide 1 receptor (Homo sapiens) (UniProt P43220)
Test: qHTS of GLP-1 Receptor Inverse Agonists (Inhibition Mode); note: nearly all actives have a fitted effect of over 55% in size
Conditions: HEK293 GLP-1R CRE-luciferase, luminescence, 24 h, GLP-1R form is constitutively active; series mostly up to 38.3 µM
In short: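 Stable HEK293 clone (constitutively active GLP-1R + cAMP-response luciferase); 200 cells/uL plated, 12 h pre-culture, compound 24 hr, 37 deg C/5% CO2; detection reagent 12 min RT; luminescence.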
Potency is the fitted concentration of half-maximal effect; tags give direction and shape of the fitted curve.

Chain of UniProt P43220 (P43220 whole entry, looked up): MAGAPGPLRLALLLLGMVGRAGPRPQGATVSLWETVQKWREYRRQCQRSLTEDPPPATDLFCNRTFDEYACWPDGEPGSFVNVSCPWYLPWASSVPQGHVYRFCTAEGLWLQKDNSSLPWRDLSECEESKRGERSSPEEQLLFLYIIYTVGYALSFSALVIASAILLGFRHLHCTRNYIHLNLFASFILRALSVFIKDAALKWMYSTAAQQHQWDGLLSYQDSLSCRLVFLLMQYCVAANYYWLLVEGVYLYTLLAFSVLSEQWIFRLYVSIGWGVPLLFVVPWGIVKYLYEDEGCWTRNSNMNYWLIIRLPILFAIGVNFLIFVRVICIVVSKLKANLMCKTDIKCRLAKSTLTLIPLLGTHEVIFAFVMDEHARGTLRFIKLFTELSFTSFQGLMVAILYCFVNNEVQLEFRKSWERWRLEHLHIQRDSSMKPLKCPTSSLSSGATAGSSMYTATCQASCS

Potency, inconclusive:
COc1ccccc1C(=O)Nc1ccnn1C1CCN(C/C=C/c2ccccc2)CC1 14.1 µM [inhibitor, single point]
CCCN(CCC)c1ncnc2nc[nH]c12 2.24 µM [inhibitor, full curve, poor fit]
CCOc1ccc(CNCc2c(C(=O)O)n(Cc3ccc(C)cc3)c3cc(C)ccc23)cc1 28.2 µM [inhibitor, single point]
CC(C)Cn1c(=O)c(C(=O)NCc2ccccn2)c(O)c2ccccc21 1.58 µM [inhibitor, full curve, poor fit]
CC(NC(=O)c1ccc(F)cc1)c1ccccc1 (stereo not drawn) 14.1 µM [inhibitor, single point]
O=C(CCN1CCc2ccccc21)c1ccc2c(c1)OCCO2 20 µM [inhibitor, single point]
Cc1nn2c(NCc3ccccn3)cc(C(C)C)nc2c1-c1ccccc1 2 µM [inhibitor, partial curve, poor fit]
O=C(CNC(=O)c1ccccc1Cl)N/N=C/c1ccc2c(c1)OCO2 28.2 µM [inhibitor, single point]
CC1CCN(C(=O)/C=C/c2ccc(C(C)(C)C)cc2)CC1 10 µM [inhibitor, partial curve, poor fit]
COc1cccc(/C=N/NC(=O)CNC(=O)/C=C\c2ccccc2)c1O 3.16 µM [inhibitor, partial curve, poor fit]
O=C1N=C(N2CCN(c3ccccc3)CC2)S/C1=C\c1cn[nH]c1-c1ccccc1 1.58 µM [inhibitor, full curve, poor fit]
CCN(CC)CCN(C(=O)c1ccco1)c1nc2ccc(Br)cc2s1 11.2 µM [inhibitor, single point]
CCOC(=O)N(C)c1c(CC)nc2c(OCc3ccc(C(F)(F)F)cc3)cccn12 11.2 µM [inhibitor, single point]
O=C(COc1ccccc1C(=O)c1cnn(-c2ccccc2)c1)Nc1ccccc1 22.4 µM [inhibitor, single point]
CCC[C@@H]1CCCO[C@@](C(=O)NCc2cc(C)n(C)n2)(C(F)(F)F)C1 11.2 µM [inhibitor, single point]
COc1cc(OC)cc(-c2c(-c3ccc(F)cc3)c3cc(-c4ccc5cc[nH]c5c4)ccc3n2C)c1 0.501 µM [inhibitor, full curve, poor fit]
COC(=O)c1ccc(-c2ccc(/C=N/N3C(=O)C4C5C=CC(C6CC56)C4C3=O)o2)cc1 (stereo not drawn) 20 µM [inhibitor, single point]
CN(C)C(=O)c1ccc(NC(=O)COC(=O)C2(c3ccccc3)CCCC2)cc1 31.6 µM [inhibitor, partial curve, poor fit]
CCCCN1C2=NCCCN2c2cc(C)c(C)cc21 3.98 µM [inhibitor, full curve]
Cc1cccc(CN2CCN(C(=S)Nc3ccccc3)CC2)c1 10 µM [inhibitor, partial curve, poor fit]
CC(C)c1ccc(NC(=O)C2CCN(S(=O)(=O)c3ccc4c(c3)NC(=O)CO4)CC2)cc1 11.2 µM [inhibitor, partial curve, poor fit]
COc1ccc(-c2noc(CNS(=O)(=O)c3ccccc3)n2)cc1 11.2 µM [inhibitor, partial curve, poor fit]
Cc1ccc(C)[n+](CC(=O)c2ccc(-c3ccccc3)cc2)c1 17.8 µM [inhibitor, partial curve, poor fit]
CCCOc1ccc(C(=O)N(Cc2ccc(N(C)C)cc2)CC2CCCO2)cc1 (stereo not drawn) 28.2 µM [inhibitor, single point]
COc1cc(C(CCN2CCCCC2)c2c(OC)cc(OC)c3c(-c4ccccc4)cc(=O)oc23)cc(OC)c1OC (stereo not drawn) 12.6 µM [inhibitor, single point]
O=C1CSC(c2cn(-c3ccccc3)nc2-c2cccs2)N1CC1CCCO1 (stereo not drawn) 10 µM [inhibitor, partial curve, poor fit]
O=C1/C(=C/c2ccccc2Cl)SC(=S)N1CCC(=O)N1CCCCC1CCO (stereo not drawn) 10 µM [inhibitor, partial curve, poor fit]
CC(C)(C)NC(=O)NC(=O)CN1CCC(Cc2ccccc2)CC1 15.8 µM [inhibitor, partial curve, poor fit]
Cc1ccc(-n2nc(C)c(NC(=O)CCl)c2C)cc1C 28.2 µM [inhibitor, single point]
O=C(c1cc2c(s1)-c1ccccc1OC2)N1CCN(c2ccccc2)CC1 14.1 µM [inhibitor, single point]
CC(C)c1cccc(C(C)C)c1NC(=O)CCl 8.91 µM [inhibitor, partial curve, poor fit]
Cc1ccccc1NC(=O)c1ccc2c(c1)N(C)CCS2 11.2 µM [inhibitor, single point]
O=C(COC(=O)C1CC2C=CC1C2)Nc1ccc2c(c1)OC(F)(F)O2 (stereo not drawn) 28.2 µM [inhibitor, single point]
Cc1ccc(OCCCSc2ncccn2)cc1C 8.91 µM [inhibitor, partial curve]
CC(C)COC(=O)N1CCCCC1c1cc(C(=O)NCc2ccc(F)cc2)no1 (stereo not drawn) 10 µM [inhibitor, partial curve, poor fit]
CC(C)C[C@H]1CNC(=S)N1C[C@H]1CCCN1C[C@H](Cc1ccc(O)cc1)N1C[C@H](Cc2ccc(O)cc2)N(CC2CCCCC2)C1=S 12.6 µM [inhibitor, single point]
CCCCCCn1nc(C(=O)N(CC(C)C)c2c(N)n(CCCC)c(=O)[nH]c2=O)c2ccccc2c1=O 11.2 µM [inhibitor, single point]
O=C(CSc1ccc(Br)cc1)NC1CCCCCC1 11.2 µM [inhibitor, single point]
Cc1ccc(NC(=O)C(NC2CCCC2)c2ccccc2)cc1Cl (stereo not drawn) 14.1 µM [inhibitor, partial curve, poor fit]
O=C(CCc1ccccc1)N(Cc1cccnc1)c1nc2c(F)cccc2s1 11.2 µM [inhibitor, partial curve, poor fit]
COc1cccc(OCC(O)CN2CCC(CN3C(=O)c4cccc5cccc(c45)C3=O)CC2)c1 (stereo not drawn) 10 µM [inhibitor, partial curve, poor fit]
O=C(NCCc1ccccn1)c1ccc(OC2CCN(CCc3ccccc3)CC2)cc1 7.94 µM [inhibitor, partial curve]
CN(N=C(c1ccccc1)c1ccccc1)c1ccccc1 12.6 µM [inhibitor, partial curve, poor fit]
COc1cc(CNCc2cccc3ccccc23)cc(OC)c1 28.2 µM [inhibitor, single point]
Cc1ccc(NC(=O)N2CCC(c3ccccc3)C2)cc1C (stereo not drawn) 10 µM [inhibitor, single point]
Cc1nc(SCC(=O)NCc2ccc3c(c2)OCO3)c(C#N)c2c1CCCC2 28.2 µM [inhibitor, single point]
CC(C)Cc1cc(C(=O)Nc2c(F)cc(F)cc2Br)no1 28.2 µM [inhibitor, single point]
NS(=O)(=O)c1ccc(CCNC(=O)C2CCCN2C(=O)OCc2ccccc2)cc1 (stereo not drawn) 11.2 µM [inhibitor, single point]
COc1ccc2sc(NCc3ccccc3)nc2c1 8.91 µM [inhibitor, partial curve, poor fit]
COc1cc(OC)c(N(C)S(=O)(=O)c2cccc(C(=O)OCC(=O)N(C)C3CCCCC3)c2)cc1Cl 11.2 µM [inhibitor, partial curve, poor fit]

Potency, inactive:
Cc1ccc(N(CC(=O)NC2CCCC2)C(=O)CCC(=O)Nc2nccs2)cc1C
COc1cccc(CNc2cc(C)ccn2)c1O
O=C(c1ccc2c(c1)N(Cc1ccccc1)C(=O)c1ccccc1S2(=O)=O)N1CCCCCC1
COc1ccc(-c2c(C)nn(-c3ccccc3)c2N)cc1
CCc1cc(CNC(=O)C2CCC(=O)N(Cc3ccccc3F)C2)on1 (stereo not drawn)
CC(=O)Nc1nonc1-c1nnc(SCC(=O)Nc2cc(C)cc(C)c2)n1-c1ccccc1
CCOC(=O)C1CCN(C2CCN(Cc3nc(-c4ccccc4)no3)CC2)CC1
O=C1Nc2ccccc2/C1=N/N=C/c1cccc(O)c1
Cc1ccc(NC(=O)Nc2ccc3c(c2)OCO3)cc1F
CC1=C(C(=O)Nc2ccccc2)C(CC(C)C)n2nc(SCc3ccccc3C)nc2N1 (stereo not drawn)
S=C(Nc1ccc(Cl)cc1)N1CCCCC1
Cc1ccc(O)c(NC(=O)C2CC(c3ccc(F)cc3)=NO2)c1 (stereo not drawn)

Potency, active:
COc1cc2c(cc1O)CC[C@@H]1[C@@H]2CC[C@]2(C)[C@@H](O)CC[C@@H]12 11.2 µM

— PubChem BioAssay AID624417 (National Center for Advancing Translational Sciences (NCATS), 2012)
